This test has as its target T1, CD37 (human) (UniProt P11049).
T1 sequence (looked up): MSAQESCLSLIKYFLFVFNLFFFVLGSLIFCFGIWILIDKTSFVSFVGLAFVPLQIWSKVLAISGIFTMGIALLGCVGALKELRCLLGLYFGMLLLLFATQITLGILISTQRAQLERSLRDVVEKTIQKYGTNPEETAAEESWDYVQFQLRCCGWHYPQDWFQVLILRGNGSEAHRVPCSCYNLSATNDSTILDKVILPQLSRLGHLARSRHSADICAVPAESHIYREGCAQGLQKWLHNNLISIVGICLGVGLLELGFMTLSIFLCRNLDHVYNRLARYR
Kind of test: cell-based or functional assay.

B1: SMIP016 (Fc fusion, from a related filing)
chain: DIQMTQSPASLSASVGETVTITCRTSENVYSYLAWYQQKQGKSPQLLVSFAKTLAEGVPSRFSGSGSGTQFSLKISSLQPEDSGSYFCQHHSDNPWTFGGGTELEIKGGGGSGGGGSGGGGSSAVQLQQSGPESEKPGASVKISCKASGYSFTGYNMNWVKQNNGKSLEWIGNIDPYYGGTTYNRKFKGKATLTVDKSSSTAYMQLKSLTSEDSAVYYCARSVGPMDYWGQGTSVTVSSDL[in this place human IgG1 Fc with changes]
B1 displayed an IC50 (nM), direct growth inhibition of DoHH2 cells, 96 h, ATP detection greater than 100 nM and an IC50 (nM), direct growth inhibition of SU-DHL-6 cells, 96 h, ATP detection greater than 100 nM.

(Values after patent US20140154252A1.)
